Measured values: PubChem BioAssay (NCI)
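In this assay, cells in 96-well plates receive the compound at five concentrations for 48 hours. Endpoints are linearly interpolated between the surrounding concentrations. GI50 is the concentration that inhibits growth by half. TGI: concentration producing complete growth inhibition.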

What follows are molecules tested on NCI-H322M lung (assay: NCI anticancer screen, dose series, 48 h).

Compound | TGI [µM] | GI50 [µM]
O=C(O)C1CCCCC1c1c2ccc(=O)cc-2oc2cc(O)ccc12 (stereo not given) | > 100 | –
Cc1cc2nc(N3C(=O)/C(=C/c4ccc(Cl)cc4)N=C3c3ccccc3)sc2cc1C | > 100 | –
NC(=O)c1nnsc1NC=O | > 100 | –
O=C1CCS/C(=N\S(=O)(=O)c2ccc(N3N=C4c5ccccc5CC4C3c3cccs3)cc2)N1C(=O)c1ccccc1 (stereo not given) | 70.8 | 32.5
CC(=O)Oc1ccc(/C=C/C(=O)O[C@H]2CCCC[C@@H]2OC(=O)/C=C/c2ccc(OC(C)=O)c(OC(C)=O)c2)cc1OC(C)=O | 45.1 | –
CCCCCCC(C)OC(=O)/C=C(\CC(=O)OC(C)CCCCCC)C(=O)OC(C)CCCCCC (stereo not given) | > 100 | –
Fc1ccc2[nH]cc(SSc3c[nH]c4ccc(F)cc34)c2c1 | 27.7 | 10.7
COc1cc(/C=C2\C(=O)Nc3cccc(Cl)c32)cc(OC)c1OC | > 100 | > 100
c1ccc(-c2cc(-c3cccs3)c(-c3cccs3)o2)cc1 | > 100 | –
CC1(C)CC(Nc2ccc(Nc3ccccc3)cc2)CC(C)(C)N1 | > 100 | –
CNCCCNCCCN1C(=O)c2ccc3c4c(ccc(c24)C1=O)C(=O)N(CCCNCc1ccccc1OC)C3=O | 10.8 | 2.22
Oc1ccccc1-c1n[nH]c(=S)n1/N=C/c1ccc(-c2ccc(Br)cc2)o1 | > 100 | –
O=C1CCCC2=C1CC1=C(CCCC1=O)N2c1ccccc1 | > 100 | –
CC(Cc1ccccc1)NC1=NCCO1 (stereo not given) | > 100 | –
CCOP(=O)(OCC)C1=NC=CC=CC1n1c(-c2ccccc2)nn(CC)c1=O (stereo not given) | > 100 | –
O=C1ON=C2C3CC4CC12CC1(C3)C(=O)ON=C41 | > 100 | –
Nc1nc(-c2cccc([N+](=O)[O-])c2)cc(-c2cc(-c3cccc([N+](=O)[O-])c3)nc(N)n2)n1 | > 100 | –
Cc1nnc(-n2c(O)cc(=O)n(-c3ccccc3)c2=S)nc1/C=C/c1ccc(N(C)C)cc1 | > 74.6 | –
Cn1c(=O)c2c(nc(Nc3ccc(Cl)cc3)n3c(=O)n(-c4ccccc4)c(=O)n23)n(C)c1=O | > 100 | –
CC(=O)N1c2ccccc2C(C)C1c1[nH]c2ccccc2c1C (stereo not given) | 68.2 | –
Cc1nc2ccccc2n1Cc1nnc(N)o1 | > 100 | –
CC(=O)O[C@H]1C[C@H]2C(=S)Nc3ccccc3C(=S)N2C1 | > 100 | –
O=[N+]([O-])c1ccc2nc3ccccc3cc2c1 | 11.1 | –
COC(=O)C1C(OCc2ccccc2)C2CCC1(OC)C=C2C (stereo not given) | > 100 | –
O=C1C(NCCN2CCOCC2)=C(Cl)C(=O)c2ncccc21 | 2.41 | –
O=C(OCc1ccccc1)N1CCN(C(=O)OCc2ccccc2)CCN(C(=O)OCc2ccccc2)CCN(C(=O)OCc2ccccc2)CCN(C(=O)OCc2ccccc2)CC1 | > 100 | –
OCc1ccc(N(CCN2CCCC2)Cc2ccc(F)cc2)cc1Cl | 18 | 4.15

Compound | TGI [µM] | GI50 [µM]
C=C1C(=O)OC2CC(C)C3C=CC(=O)C3CC12 (stereo not given) | 18.9 | –
O=c1c2ccccc2nc(-c2cccc(Cl)c2)n1NCC1(O)OCC(O)C(O)C1O (stereo not given) | > 100 | –
N#Cc1ccc(Oc2nc3ccc(C(F)(F)F)cc3nc2-c2ccccc2)cc1 | 34.9 | –
CC(C)C(=O)/C=C/c1ccc(Cl)c(Cl)c1 | 80.7 | –
N=c1c2c(=S)n(-c3ccccc3)c(=S)n(-c3ccccc3)c2nc(SCCN2CCOCC2)n1-c1ccccc1 | 5.56 | –
C#CC(O)/C=C/C(O)CCCC(O)CC#CC(O)C#CC(O)CCCC(O)/C=C/CCCC(=O)CCCCCCCCCCCCCCCC(O)C(O)C#CC(=O)O (stereo not given) | > 50 | –
NS(=O)(=O)c1nnc(NS(=O)(=O)c2ccccc2C(=O)O)s1 | > 100 | –
Clc1c(C(Cl)(Cl)Cl)nsc1N1CCCCC1 | > 100 | –
COc1ccc2c(c1)/C(=C/c1cc(OC)c(OC)c(OC)c1)C(=O)N2C | > 56.5 | 3.79
O=c1c2ccccc2[nH]c2cc(O)cc(O)c12 | > 100 | –
C/C(=N\N=C(N)N)C(CN(C)C)C(c1ccccc1)c1c(O)c2ccccc2oc1=O (stereo not given) | > 100 | –
O=c1c2cccnc2ncn1CCN1CCCC1 | > 100 | –
COc1ccccc1-c1cc(=O)c2ccc(OC)c(OC)c2o1 | > 100 | –
CCSc1nc(N)c2c(-c3ccccc3)c3c(nc2n1)CCC3 | > 100 | –
NC(CC1=CCC=CC1)C(=O)O (stereo not given) | > 100 | –
CC(C)(C)[C@H]1CCC2(OCCO2)[C@](O)(CCCO)C1 | > 100 | –
COc1cc2c(cn1)[nH]c1ccccc12 | > 100 | –
O=C(OCCC12CC3CC(CC(C3)C1)C2)c1ccc(NCc2cc(O)ccc2O)cc1 | 22.2 | –
CC12CCC(C(Nc3ccccn3)C1=O)C2(C)C (stereo not given) | > 100 | –
CCN(CC)CCCOc1cc2c(cc1OC)C(=O)N1CCC[C@H]1C=N2 | > 100 | –
C#CCn1c(=O)c(Cl)cn(/C(=C/C(=O)OCC)C(=O)OCC)c1=O | > 56.4 | –
CCN1CCC(O)(c2ccc(Oc3ccc(C)cc3)cc2)C(C(=O)c2ccc(Oc3ccc(C)cc3)cc2)C1 (stereo not given) | 26 | –
O=C1c2ccccc2C(=O)c2c(O)ccc(O)c21 | > 100 | –
Cc1cc(N(CCCl)CCCl)ccc1/C=N/NC(=O)Cc1cc(=O)oc2cc(O)ccc12 | 54 | –
Oc1ccc(O)c(CNc2ccccc2)c1 | > 100 | –
NC1(C(=O)O)CCCC1 | > 465 | –
c1ccc(COC2(OCc3ccccc3)CC3OC2C2NN=NC32)cc1 (stereo not given) | > 100 | –
